Paper PMC7212617
No constants are given. Whether binding was seen depends on the method and setting. Binding seen in cells or lysates may run through a third protein. Some binding calls cover weakened binding; strength is not graded here. For part of these data: Tags and fused reporters may be left off the sequences shown.

How the values were obtained:
Assay in all cases: co-IP; nuclear lysates (2 mg) of mESCs induced with Dox (D) or treated with IAA plus Dox (ID); ANTI-FLAG M2 magnetic beads overnight at 4 °C pull down the FLAG-tagged transgene; washes with 150 mM NaCl, 0.05% Triton X-100; blot with anti-Rad21
[1] = target: T1, transgenic CTCF (3x FLAG-CTCF-mRuby2), doxycycline-inducible, knocked in at the Tigre locus (mouse) (UniProt Q61164)
T1 sequence: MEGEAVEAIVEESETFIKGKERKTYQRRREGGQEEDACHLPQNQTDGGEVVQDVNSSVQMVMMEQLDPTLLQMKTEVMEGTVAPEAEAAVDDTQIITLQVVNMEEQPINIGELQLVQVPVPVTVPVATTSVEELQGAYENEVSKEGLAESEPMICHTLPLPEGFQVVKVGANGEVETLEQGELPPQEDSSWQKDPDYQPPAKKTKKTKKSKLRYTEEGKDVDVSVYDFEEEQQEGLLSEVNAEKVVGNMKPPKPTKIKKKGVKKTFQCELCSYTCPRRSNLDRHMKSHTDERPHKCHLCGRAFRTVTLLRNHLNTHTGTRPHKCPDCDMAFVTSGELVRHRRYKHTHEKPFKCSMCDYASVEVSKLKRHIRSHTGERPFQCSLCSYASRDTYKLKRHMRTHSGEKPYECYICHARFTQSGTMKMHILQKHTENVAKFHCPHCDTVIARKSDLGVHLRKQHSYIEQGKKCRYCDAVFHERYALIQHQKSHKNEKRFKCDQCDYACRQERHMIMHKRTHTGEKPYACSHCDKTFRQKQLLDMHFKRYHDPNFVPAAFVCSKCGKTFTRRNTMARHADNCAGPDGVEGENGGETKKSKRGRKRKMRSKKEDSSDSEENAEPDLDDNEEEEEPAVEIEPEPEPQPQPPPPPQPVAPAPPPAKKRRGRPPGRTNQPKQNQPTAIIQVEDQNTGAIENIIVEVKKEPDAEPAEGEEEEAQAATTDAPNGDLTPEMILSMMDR

[2] = target: T2, transgenic CTCFL (3x FLAG-CTCFL-mRuby2), doxycycline-inducible, knocked in at the Tigre locus (mouse) (UniProt A2APF3)
T2 sequence: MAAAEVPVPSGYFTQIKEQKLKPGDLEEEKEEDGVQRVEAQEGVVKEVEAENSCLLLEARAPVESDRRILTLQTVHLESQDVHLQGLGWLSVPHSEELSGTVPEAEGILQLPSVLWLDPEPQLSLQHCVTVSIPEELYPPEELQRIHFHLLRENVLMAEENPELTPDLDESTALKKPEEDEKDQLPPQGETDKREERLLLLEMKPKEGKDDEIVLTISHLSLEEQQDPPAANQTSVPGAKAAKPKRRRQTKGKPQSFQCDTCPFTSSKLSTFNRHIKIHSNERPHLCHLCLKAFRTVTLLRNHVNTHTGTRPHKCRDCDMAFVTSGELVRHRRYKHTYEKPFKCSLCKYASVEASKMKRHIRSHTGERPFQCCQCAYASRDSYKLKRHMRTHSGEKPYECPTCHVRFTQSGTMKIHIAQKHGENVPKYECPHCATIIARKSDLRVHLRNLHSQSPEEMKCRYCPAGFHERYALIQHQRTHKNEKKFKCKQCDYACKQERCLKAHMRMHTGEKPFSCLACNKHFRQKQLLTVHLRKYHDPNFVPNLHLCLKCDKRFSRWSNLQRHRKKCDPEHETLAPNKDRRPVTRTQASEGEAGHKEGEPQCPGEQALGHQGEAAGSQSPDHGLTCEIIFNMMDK

[3] = target: T3, CLC: CTCF N terminus - CTCFL zinc fingers - CTCF C terminus chimeric protein (mouse) (UniProt Q61164+A2APF3)
T3 sequence: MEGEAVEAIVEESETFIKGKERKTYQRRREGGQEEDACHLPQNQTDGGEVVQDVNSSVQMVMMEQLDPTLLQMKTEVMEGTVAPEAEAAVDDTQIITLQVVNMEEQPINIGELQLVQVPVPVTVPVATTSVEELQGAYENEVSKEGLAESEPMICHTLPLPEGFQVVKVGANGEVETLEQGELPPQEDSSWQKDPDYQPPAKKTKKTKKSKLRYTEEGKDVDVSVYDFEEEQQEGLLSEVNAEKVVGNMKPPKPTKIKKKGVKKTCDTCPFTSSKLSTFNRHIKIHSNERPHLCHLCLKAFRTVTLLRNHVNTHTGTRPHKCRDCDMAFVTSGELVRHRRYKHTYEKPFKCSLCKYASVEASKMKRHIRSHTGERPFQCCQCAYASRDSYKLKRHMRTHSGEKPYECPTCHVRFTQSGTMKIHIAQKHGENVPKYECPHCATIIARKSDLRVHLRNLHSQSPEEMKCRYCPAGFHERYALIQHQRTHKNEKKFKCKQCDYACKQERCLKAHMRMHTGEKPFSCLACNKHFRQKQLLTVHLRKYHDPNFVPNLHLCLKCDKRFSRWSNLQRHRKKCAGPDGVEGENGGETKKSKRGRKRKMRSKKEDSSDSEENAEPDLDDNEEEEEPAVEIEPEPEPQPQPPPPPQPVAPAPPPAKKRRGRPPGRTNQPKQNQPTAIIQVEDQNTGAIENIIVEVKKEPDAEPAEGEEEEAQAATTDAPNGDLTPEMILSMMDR

- binding [1]: binds
- binding [2]: no binding
- binding [3]: binds
B1: RAD21, a component of the cohesin complex (protein, UniProt Q61550 1-635)
chain: MFYAHFVLSKRGPLAKIWLAAHWDKKLTKAHVFECNLESSVESIISPKVKMALRTSGHLLLGVVRIYHRKAKYLLADCNEAFIKIKMAFRPGVVDLPEENREAAYNAITLPEEFHDFDQPLPDLDDIDVAQQFSLNQSRVEEITMREEVGNISILQENDFGDFGMDDREIMREGSAFEDDDMLVSTSASNLLLEPEQSTSNLNEKMNHLEYEDQYKDDNFGEGNDGGILDDKLISNNDGGIFDDPPALSEAGVMLPEQPAHDDMDEDDNGSLGGPDSPDSVDPVEPMPTMTDQTTLVPNEEEAFALEPIDITVKETKAKRKRKLIVDSVKELDSKTIRAQLSDYSDIVTTLDLAPPTKKLMMWKETGGVEKLFFLPAQPLWNNRLLKLFTRCLTPLVPEDLRKRRKGGEADNLDEFLKEFENPEVPREEQQPQQQQPQPQRDVIDEPIIEEPSRLQDSVMEASRTTIEESAMPPPPPQGVKRKAGQIDPEPSIPPQQVEQMEIPPVELPPEEPPNICQLIPELELLPEKEKEKEKEKEEEEEEEDEDASGGDQDQEERRWNKRTQQMLHGLQRALAKTGAESISLLELCRNTNRKQAAAKFYSFLVLKKQQAIELTQEEPYSDIIATPGPRFHII
